Results taken from publication PMC12820563.
The list shows a part of the results. The list includes weakly bound sequences.

Target: T1, MBP-FoxP3dN (UniProt Q99JB6)
T1 sequence: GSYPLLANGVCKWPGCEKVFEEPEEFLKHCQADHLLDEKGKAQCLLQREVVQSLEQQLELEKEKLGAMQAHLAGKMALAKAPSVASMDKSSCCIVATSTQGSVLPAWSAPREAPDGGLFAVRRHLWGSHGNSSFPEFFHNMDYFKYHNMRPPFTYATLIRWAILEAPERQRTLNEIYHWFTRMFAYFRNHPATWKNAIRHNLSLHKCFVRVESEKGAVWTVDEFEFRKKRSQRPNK
Assay: PD-seq (MBP pull-down with sequencing)
Details: 20 mM Tris-HCl pH 7.5, 100 mM NaCl, 1.5 mM MgCl2, 0.4 uM protein, 0.1 uM dsDNA library, 30 min, room temperature, amylose pull-down; high values mean tight binding; double strand, one strand shown

| Sequence | binding signal (RPM ratio (pull-down/input)) |
| --- | --- |
| GATGATTGTTCTCCCAGCTGATGAATTAGTCGCATCGAGTAAACAAATTTTCCTAATCTTTCTGTTCAAGCGCCATCTAC | 1.29 |
| GATGATTGTTCTCCCAGCTGATGAATTGAAGATTTCGAGTAAACAAATTTTCCTAATCTTTCTGTTCAAGCGCCATCTAC | 0.281 |
| GATGATTGTTCTCCCAGCTGATGAATTCCGGTACTCGAGTAAACAAATTTTCCTAATCTTTCTGTTCAAGCGCCATCTAC | 0.479 |
| GATGATTGTTCTCCCAGCTGATGAATTCTCACTTTCGAGTAAACAAATTTTCCTAATCTTTCTGTTCAAGCGCCATCTAC | 0.343 |
| GATGATTGTTCTCCCAGCTGATGAATTGAATAAGTCGAGTAAACAAATTTTCCTAATCTTTCTGTTCAAGCGCCATCTAC | 0.232 |
| GATGATTGTTCTCCCAGCTGATGAATTAACCTGCTCGAGTAAACAAATTTTCCTAATCTTTCTGTTCAAGCGCCATCTAC | 0.244 |
| GATGATTGTTCTCCCAGCTGATGAATTCTATCACTCGAGTAAACAAATTTTCCTAATCTTTCTGTTCAAGCGCCATCTAC | 0.974 |
| GATGATTGTTCTCCCAGCTGATGAATTTTGTAGATCGAGTAAACAAATTTTCCTAATCTTTCTGTTCAAGCGCCATCTAC | 1.58 |
| GATGATTGTTCTCCCAGCTGATGAATTACTAGAATCGAGTAAACAAATTTTCCTAATCTTTCTGTTCAAGCGCCATCTAC | 0.27 |
| GATGATTGTTCTCCCAGCTGATGAATTGTAACATTCGAGTAAACAAATTTTCCTAATCTTTCTGTTCAAGCGCCATCTAC | 1.36 |
| GATGATTGTTCTCCCAGCTGATGAATTTCCGCGCTCGAGTAAACAAATTTTCCTAATCTTTCTGTTCAAGCGCCATCTAC | 0.448 |
| GATGATTGTTCTCCCAGCTGATGAATTTACCAATTCGAGTAAACAAATTTTCCTAATCTTTCTGTTCAAGCGCCATCTAC | 0.53 |
| GATGATTGTTCTCCCAGCTGATGAATTATCCGGATCGAGTAAACAAATTTTCCTAATCTTTCTGTTCAAGCGCCATCTAC | 0.152 |
| GATGATTGTTCTCCCAGCTGATGAATTTCACGCCTCGAGTAAACAAATTTTCCTAATCTTTCTGTTCAAGCGCCATCTAC | 0.633 |
| GATGATTGTTCTCCCAGCTGATGAATTGTATTTATCGAGTAAACAAATTTTCCTAATCTTTCTGTTCAAGCGCCATCTAC | 6.83 |
| GATGATTGTTCTCCCAGCTGATGAATTGATCGAATCGAGTAAACAAATTTTCCTAATCTTTCTGTTCAAGCGCCATCTAC | 0.275 |
| GATGATTGTTCTCCCAGCTGATGAATTATCAGAGTCGAGTAAACAAATTTTCCTAATCTTTCTGTTCAAGCGCCATCTAC | 0.249 |
| GATGATTGTTCTCCCAGCTGATGAATTCCGGGGCTCGAGTAAACAAATTTTCCTAATCTTTCTGTTCAAGCGCCATCTAC | 0.264 |
| GATGATTGTTCTCCCAGCTGATGAATTTGCGACTTCGAGTAAACAAATTTTCCTAATCTTTCTGTTCAAGCGCCATCTAC | 1.4 |
| GATGATTGTTCTCCCAGCTGATGAATTCAAGGACTCGAGTAAACAAATTTTCCTAATCTTTCTGTTCAAGCGCCATCTAC | 0.227 |
| GATGATTGTTCTCCCAGCTGATGAATTTACCGCCTCGAGTAAACAAATTTTCCTAATCTTTCTGTTCAAGCGCCATCTAC | 0.683 |

| Sequence | binding signal (RPM ratio (pull-down/input)) |
| --- | --- |
| GATGATTGTTCTCCCAGCTGATGAATTAGGCTAATCGAGTAAACAAATTTTCCTAATCTTTCTGTTCAAGCGCCATCTAC | 0.458 |
| GATGATTGTTCTCCCAGCTGATGAATTACCCATCTCGAGTAAACAAATTTTCCTAATCTTTCTGTTCAAGCGCCATCTAC | 0.321 |
| GATGATTGTTCTCCCAGCTGATGAATTCCTAAAGTCGAGTAAACAAATTTTCCTAATCTTTCTGTTCAAGCGCCATCTAC | 0.19 |
| GATGATTGTTCTCCCAGCTGATGAATTAAACTGGTCGAGTAAACAAATTTTCCTAATCTTTCTGTTCAAGCGCCATCTAC | 0.284 |
| GATGATTGTTCTCCCAGCTGATGAATTTAGGCGATCGAGTAAACAAATTTTCCTAATCTTTCTGTTCAAGCGCCATCTAC | 0.658 |
| GATGATTGTTCTCCCAGCTGATGAATTTAGGACTTCGAGTAAACAAATTTTCCTAATCTTTCTGTTCAAGCGCCATCTAC | 0.469 |
| GATGATTGTTCTCCCAGCTGATGAATTTACCTTGTCGAGTAAACAAATTTTCCTAATCTTTCTGTTCAAGCGCCATCTAC | 0.453 |
| GATGATTGTTCTCCCAGCTGATGAATTCCTACTCTCGAGTAAACAAATTTTCCTAATCTTTCTGTTCAAGCGCCATCTAC | 0.298 |
| GATGATTGTTCTCCCAGCTGATGAATTAGCTACATCGAGTAAACAAATTTTCCTAATCTTTCTGTTCAAGCGCCATCTAC | 0.577 |
| GATGATTGTTCTCCCAGCTGATGAATTCCATCGGTCGAGTAAACAAATTTTCCTAATCTTTCTGTTCAAGCGCCATCTAC | 0.317 |
| GATGATTGTTCTCCCAGCTGATGAATTGTTGCCGTCGAGTAAACAAATTTTCCTAATCTTTCTGTTCAAGCGCCATCTAC | 2.01 |
| GATGATTGTTCTCCCAGCTGATGAATTGTCTGCTTCGAGTAAACAAATTTTCCTAATCTTTCTGTTCAAGCGCCATCTAC | 0.472 |
| GATGATTGTTCTCCCAGCTGATGAATTAAGTTCCTCGAGTAAACAAATTTTCCTAATCTTTCTGTTCAAGCGCCATCTAC | 0.65 |
| GATGATTGTTCTCCCAGCTGATGAATTATCGTTGTCGAGTAAACAAATTTTCCTAATCTTTCTGTTCAAGCGCCATCTAC | 0.726 |
| GATGATTGTTCTCCCAGCTGATGAATTCACGCGCTCGAGTAAACAAATTTTCCTAATCTTTCTGTTCAAGCGCCATCTAC | 0.904 |
| GATGATTGTTCTCCCAGCTGATGAATTATGCCGTTCGAGTAAACAAATTTTCCTAATCTTTCTGTTCAAGCGCCATCTAC | 2.29 |
| GATGATTGTTCTCCCAGCTGATGAATTCAGTACCTCGAGTAAACAAATTTTCCTAATCTTTCTGTTCAAGCGCCATCTAC | 0.666 |
| GATGATTGTTCTCCCAGCTGATGAATTTGGGAACTCGAGTAAACAAATTTTCCTAATCTTTCTGTTCAAGCGCCATCTAC | 0.28 |
| GATGATTGTTCTCCCAGCTGATGAATTTCTAACTTCGAGTAAACAAATTTTCCTAATCTTTCTGTTCAAGCGCCATCTAC | 0.239 |
| GATGATTGTTCTCCCAGCTGATGAATTCTTGGACTCGAGTAAACAAATTTTCCTAATCTTTCTGTTCAAGCGCCATCTAC | 0.217 |
| GATGATTGTTCTCCCAGCTGATGAATTCAACCAGTCGAGTAAACAAATTTTCCTAATCTTTCTGTTCAAGCGCCATCTAC | 0.274 |

| Sequence | binding signal (RPM ratio (pull-down/input)) |
| --- | --- |
| GATGATTGTTCTCCCAGCTGATGAATTCCTCGCTTCGAGTAAACAAATTTTCCTAATCTTTCTGTTCAAGCGCCATCTAC | 0.285 |
| GATGATTGTTCTCCCAGCTGATGAATTTGTATATTCGAGTAAACAAATTTTCCTAATCTTTCTGTTCAAGCGCCATCTAC | 6.34 |
| GATGATTGTTCTCCCAGCTGATGAATTCCCAGAGTCGAGTAAACAAATTTTCCTAATCTTTCTGTTCAAGCGCCATCTAC | 0.15 |
| GATGATTGTTCTCCCAGCTGATGAATTAATACACTCGAGTAAACAAATTTTCCTAATCTTTCTGTTCAAGCGCCATCTAC | 0.831 |
| GATGATTGTTCTCCCAGCTGATGAATTCACACTTTCGAGTAAACAAATTTTCCTAATCTTTCTGTTCAAGCGCCATCTAC | 0.418 |
| GATGATTGTTCTCCCAGCTGATGAATTCGTAAACTCGAGTAAACAAATTTTCCTAATCTTTCTGTTCAAGCGCCATCTAC | 0.657 |
| GATGATTGTTCTCCCAGCTGATGAATTTGTACAATCGAGTAAACAAATTTTCCTAATCTTTCTGTTCAAGCGCCATCTAC | 1.01 |
| GATGATTGTTCTCCCAGCTGATGAATTCGCCCTTTCGAGTAAACAAATTTTCCTAATCTTTCTGTTCAAGCGCCATCTAC | 0.39 |
| GATGATTGTTCTCCCAGCTGATGAATTAGTACGCTCGAGTAAACAAATTTTCCTAATCTTTCTGTTCAAGCGCCATCTAC | 0.616 |
| GATGATTGTTCTCCCAGCTGATGAATTGGTAAGCTCGAGTAAACAAATTTTCCTAATCTTTCTGTTCAAGCGCCATCTAC | 0.49 |
| GATGATTGTTCTCCCAGCTGATGAATTTACGAATTCGAGTAAACAAATTTTCCTAATCTTTCTGTTCAAGCGCCATCTAC | 0.745 |
| GATGATTGTTCTCCCAGCTGATGAATTCTTAGCATCGAGTAAACAAATTTTCCTAATCTTTCTGTTCAAGCGCCATCTAC | 0.731 |
| GATGATTGTTCTCCCAGCTGATGAATTCTCAGGTTCGAGTAAACAAATTTTCCTAATCTTTCTGTTCAAGCGCCATCTAC | 0.227 |
| GATGATTGTTCTCCCAGCTGATGAATTGTACTGCTCGAGTAAACAAATTTTCCTAATCTTTCTGTTCAAGCGCCATCTAC | 0.517 |
| GATGATTGTTCTCCCAGCTGATGAATTCGATCATTCGAGTAAACAAATTTTCCTAATCTTTCTGTTCAAGCGCCATCTAC | 0.62 |
| GATGATTGTTCTCCCAGCTGATGAATTAGATTTCTCGAGTAAACAAATTTTCCTAATCTTTCTGTTCAAGCGCCATCTAC | 1.12 |
| GATGATTGTTCTCCCAGCTGATGAATTTTCGACGTCGAGTAAACAAATTTTCCTAATCTTTCTGTTCAAGCGCCATCTAC | 0.329 |
| GATGATTGTTCTCCCAGCTGATGAATTGACAGGGTCGAGTAAACAAATTTTCCTAATCTTTCTGTTCAAGCGCCATCTAC | 0.29 |
| GATGATTGTTCTCCCAGCTGATGAATTTGTGGCTTCGAGTAAACAAATTTTCCTAATCTTTCTGTTCAAGCGCCATCTAC | 3.51 |
| GATGATTGTTCTCCCAGCTGATGAATTTCCCTAATCGAGTAAACAAATTTTCCTAATCTTTCTGTTCAAGCGCCATCTAC | 0.252 |
| GATGATTGTTCTCCCAGCTGATGAATTGCGAAGATCGAGTAAACAAATTTTCCTAATCTTTCTGTTCAAGCGCCATCTAC | 0.459 |
